The text below walks through data of PMC9911399, “Two distinct binding modes provide the RNA-binding protein RbFox with extraordinary sequence specificity”.

Where a chain is given by its changes, count along the chain named. Some of the results follow.

The labels stand for the following.
T1: RBFOX1 RRM RbFoxmut (Fox-RRM*) (Homo sapiens, UniProt Q9NWB1 109-208, R118D;E147R;N151S;E152T)
T1 sequence: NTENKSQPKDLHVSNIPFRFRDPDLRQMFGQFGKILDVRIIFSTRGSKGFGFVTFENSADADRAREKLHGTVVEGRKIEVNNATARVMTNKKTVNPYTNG

B1: CCCAAUG (DNA:RNA)
RNA: GGGAGACCGGAAUUCAGAUUGUCCCCCAAUGUUAAAUCCCGUCGUAGCCACCA
DNA 1: CAATCTGAATTCCGGTCTCCC
DNA 2: TGGTGGCTACGACGGGATT
B2: UUAGUCG (DNA:RNA)
RNA: B1 RNA with C25U, C26U, C27A, A28G, A29U, U30C
DNA 1: CAATCTGAATTCCGGTCTCCC
DNA 2: TGGTGGCTACGACGGGATT
B3: GGGACUG (DNA:RNA)
RNA: B1 RNA with C25G, C26G, C27G, A29C
DNA 1: CAATCTGAATTCCGGTCTCCC
DNA 2: TGGTGGCTACGACGGGATT
B4: CUGUUCA (DNA:RNA)
RNA: B1 RNA with C26U, C27G, A28U, A29U, U30C, G31A
DNA 1: CAATCTGAATTCCGGTCTCCC
DNA 2: TGGTGGCTACGACGGGATT
B5: AAUAUCC (DNA:RNA)
RNA: B1 RNA with C25A, C26A, C27U, A29U, U30C, G31C
DNA 1: CAATCTGAATTCCGGTCTCCC
DNA 2: TGGTGGCTACGACGGGATT
B6: UGACUGA (DNA:RNA)
RNA: GGGAGACCGGAAUUCAGAUUGUCCUGACUGAUUAAAUCCCGUCGUAGCCACCA
DNA 1: CAATCTGAATTCCGGTCTCCC
DNA 2: TGGTGGCTACGACGGGATT
B7: CCAACAG (DNA:RNA)
RNA: B1 RNA with C27A, A29C, U30A
DNA 1: CAATCTGAATTCCGGTCTCCC
DNA 2: TGGTGGCTACGACGGGATT
B8: GAUUAGU (DNA:RNA)
RNA: B1 RNA with C25G, C26A, C27U, A28U, U30G, G31U
DNA 1: CAATCTGAATTCCGGTCTCCC
DNA 2: TGGTGGCTACGACGGGATT
B9: ACGCGCA (DNA:RNA)
RNA: B6 RNA with U25A, G26C, A27G, U29G, G30C
DNA 1: CAATCTGAATTCCGGTCTCCC
DNA 2: TGGTGGCTACGACGGGATT
B10: GAUAAUG (DNA:RNA)
RNA: B1 RNA with C25G, C26A, C27U
DNA 1: CAATCTGAATTCCGGTCTCCC
DNA 2: TGGTGGCTACGACGGGATT
B11: GUCAUCG (DNA:RNA)
RNA: B1 RNA with C25G, C26U, A29U, U30C
DNA 1: CAATCTGAATTCCGGTCTCCC
DNA 2: TGGTGGCTACGACGGGATT
B12: UUGCGAA (DNA:RNA)
RNA: B6 RNA with G26U, A27G, U29G, G30A
DNA 1: CAATCTGAATTCCGGTCTCCC
DNA 2: TGGTGGCTACGACGGGATT
B13: GAGAGCG (DNA:RNA)
RNA: B1 RNA with C25G, C26A, C27G, A29G, U30C
DNA 1: CAATCTGAATTCCGGTCTCCC
DNA 2: TGGTGGCTACGACGGGATT
B14: UCGAAAC (DNA:RNA)
RNA: B1 RNA with C25U, C27G, U30A, G31C
DNA 1: CAATCTGAATTCCGGTCTCCC
DNA 2: TGGTGGCTACGACGGGATT
B15: AACGUCA (DNA:RNA)
RNA: B6 RNA with U25A, G26A, A27C, C28G, G30C
DNA 1: CAATCTGAATTCCGGTCTCCC
DNA 2: TGGTGGCTACGACGGGATT
B16: UUAGGGG (DNA:RNA)
RNA: B6 RNA with G26U, C28G, U29G, A31G
DNA 1: CAATCTGAATTCCGGTCTCCC
DNA 2: TGGTGGCTACGACGGGATT
B17: GGAUUAC (DNA:RNA)
RNA: B6 RNA with U25G, C28U, G30A, A31C
DNA 1: CAATCTGAATTCCGGTCTCCC
DNA 2: TGGTGGCTACGACGGGATT
B18: AGCUUGC (DNA:RNA)
RNA: B6 RNA with U25A, A27C, C28U, A31C
DNA 1: CAATCTGAATTCCGGTCTCCC
DNA 2: TGGTGGCTACGACGGGATT
B19: UGUUGUG (DNA:RNA)
RNA: B1 RNA with C25U, C26G, C27U, A28U, A29G
DNA 1: CAATCTGAATTCCGGTCTCCC
DNA 2: TGGTGGCTACGACGGGATT
B20: UCCCUGG (DNA:RNA)
RNA: B6 RNA with G26C, A27C, A31G
DNA 1: CAATCTGAATTCCGGTCTCCC
DNA 2: TGGTGGCTACGACGGGATT
B21: AUAAAUA (DNA:RNA)
RNA: B1 RNA with C25A, C26U, C27A, G31A
DNA 1: CAATCTGAATTCCGGTCTCCC
DNA 2: TGGTGGCTACGACGGGATT
B22: AUCGUCC (DNA:RNA)
RNA: B1 RNA with C25A, C26U, A28G, A29U, U30C, G31C
DNA 1: CAATCTGAATTCCGGTCTCCC
DNA 2: TGGTGGCTACGACGGGATT
B23: CACGUAU (DNA:RNA)
RNA: B1 RNA with C26A, A28G, A29U, U30A, G31U
DNA 1: CAATCTGAATTCCGGTCTCCC
DNA 2: TGGTGGCTACGACGGGATT
B24: UACCUCU (DNA:RNA)
RNA: B6 RNA with G26A, A27C, G30C, A31U
DNA 1: CAATCTGAATTCCGGTCTCCC
DNA 2: TGGTGGCTACGACGGGATT
B25: ACACGAC (DNA:RNA)
RNA: B6 RNA with U25A, G26C, U29G, G30A, A31C
DNA 1: CAATCTGAATTCCGGTCTCCC
DNA 2: TGGTGGCTACGACGGGATT
B26: GAGUCCG (DNA:RNA)
RNA: B1 RNA with C25G, C26A, C27G, A28U, A29C, U30C
DNA 1: CAATCTGAATTCCGGTCTCCC
DNA 2: TGGTGGCTACGACGGGATT
B27: GAGGCGU (DNA:RNA)
RNA: B6 RNA with U25G, G26A, A27G, C28G, U29C, A31U
DNA 1: CAATCTGAATTCCGGTCTCCC
DNA 2: TGGTGGCTACGACGGGATT
B28: GAAGAGA (DNA:RNA)
RNA: B6 RNA with U25G, G26A, C28G, U29A
DNA 1: CAATCTGAATTCCGGTCTCCC
DNA 2: TGGTGGCTACGACGGGATT
B29: CCGUAUG (DNA:RNA)
RNA: B1 RNA with C27G, A28U
DNA 1: CAATCTGAATTCCGGTCTCCC
DNA 2: TGGTGGCTACGACGGGATT
B30: AGCACCA (DNA:RNA)
RNA: B1 RNA with C25A, C26G, A29C, U30C, G31A
DNA 1: CAATCTGAATTCCGGTCTCCC
DNA 2: TGGTGGCTACGACGGGATT
B31: GCCGGCA (DNA:RNA)
RNA: B1 RNA with C25G, A28G, A29G, U30C, G31A
DNA 1: CAATCTGAATTCCGGTCTCCC
DNA 2: TGGTGGCTACGACGGGATT

The target of the assay is T1, RBFOX1 RRM RbFoxmut (Fox-RRM*). As to the kind of experiment: EMSA; HiTS-Eq, 1 nM pool, 10 min; buffer printed only for the single-RNA assays: 10 mM Tris pH 7.5, 150 mM NaCl, 3.4 mM EDTA, 0.001% NP-40, 30 C. As to conditions: tags: His6 N-terminal (pET28a); label: 5' 32P. In short, it runs like this: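 These values rest on relative association constants, computed from read-count changes of each RNA species versus the control reaction and normalised to the cognate motif. Reads came from free RNA recovered by 8% native PAGE after purified RbFox RRM (wild type or mutant) at increasing concentrations was equilibrated for 10 min in 50 µL with 1 nM of a 5′-radiolabelled pool with 7 randomized nucleotides and DNA-annealed flanks.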
On the technique in general: A gel shift assay detects complexes by their altered migration in electrophoresis.
B1: the binding signal was 0.0892 KA relative to UGCAUGU.
B2: the binding signal was 0.112 KA relative to UGCAUGU.
The same measure for B3: 0.266 KA relative to UGCAUGU.
The same measure for B4: 0.141 KA relative to UGCAUGU; for B5: 0.0854 KA relative to UGCAUGU; for B6: 0.28 KA relative to UGCAUGU.
Then B7, with 0.108 KA relative to UGCAUGU.
As to B8, the binding signal was 0.117 KA relative to UGCAUGU.
Then B9, with 0.15 KA relative to UGCAUGU.
The same measure for B10: 0.0802 KA relative to UGCAUGU; for B11: 0.186 KA relative to UGCAUGU; for B12: 0.124 KA relative to UGCAUGU.
The same measure for B13: 0.128 KA relative to UGCAUGU.
As to B14, the binding signal was 0.0798 KA relative to UGCAUGU.
Consider B15, for which the binding signal was 0.0754 KA relative to UGCAUGU.
The same measure for B16: 0.0458 KA relative to UGCAUGU.
Then B17, with 0.0859 KA relative to UGCAUGU; and B18, with 0.14 KA relative to UGCAUGU.
For the molecule B19, the binding signal is 0.29 KA relative to UGCAUGU.
For the molecule B20, the binding signal is 0.101 KA relative to UGCAUGU.
Then B21, with 0.119 KA relative to UGCAUGU; and B22, with 0.0736 KA relative to UGCAUGU; and B23, with 0.108 KA relative to UGCAUGU.
B24: the binding signal is 0.0588 KA relative to UGCAUGU.
The same measure for B25: 0.0842 KA relative to UGCAUGU.
For B26, the binding signal is 0.117 KA relative to UGCAUGU.
As for B27, the binding signal was 0.123 KA relative to UGCAUGU.
B28: the binding signal is 0.0591 KA relative to UGCAUGU.
B29: the binding signal is 0.534 KA relative to UGCAUGU.
Then B30, with 0.0752 KA relative to UGCAUGU; and B31, with 0.143 KA relative to UGCAUGU.
